The campaign covered roughly 310,000 compounds. About 14,000 (4.5%) showed an effect of 50% or more. The effect is printed as a negative number. The list shows a part of the results.
Target: human ether-à-go-go-related gene (hERG) potassium channel (human, UniProt Q12809)
Assay: primary screen, population patch clamp on CHO cells stably expressing hERG
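Further: peak tail current of the secondary pulse compared with the same well before compound.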

human ether-à-go-go-related gene (hERG) potassium channel, sequence (Q12809 whole entry, looked up): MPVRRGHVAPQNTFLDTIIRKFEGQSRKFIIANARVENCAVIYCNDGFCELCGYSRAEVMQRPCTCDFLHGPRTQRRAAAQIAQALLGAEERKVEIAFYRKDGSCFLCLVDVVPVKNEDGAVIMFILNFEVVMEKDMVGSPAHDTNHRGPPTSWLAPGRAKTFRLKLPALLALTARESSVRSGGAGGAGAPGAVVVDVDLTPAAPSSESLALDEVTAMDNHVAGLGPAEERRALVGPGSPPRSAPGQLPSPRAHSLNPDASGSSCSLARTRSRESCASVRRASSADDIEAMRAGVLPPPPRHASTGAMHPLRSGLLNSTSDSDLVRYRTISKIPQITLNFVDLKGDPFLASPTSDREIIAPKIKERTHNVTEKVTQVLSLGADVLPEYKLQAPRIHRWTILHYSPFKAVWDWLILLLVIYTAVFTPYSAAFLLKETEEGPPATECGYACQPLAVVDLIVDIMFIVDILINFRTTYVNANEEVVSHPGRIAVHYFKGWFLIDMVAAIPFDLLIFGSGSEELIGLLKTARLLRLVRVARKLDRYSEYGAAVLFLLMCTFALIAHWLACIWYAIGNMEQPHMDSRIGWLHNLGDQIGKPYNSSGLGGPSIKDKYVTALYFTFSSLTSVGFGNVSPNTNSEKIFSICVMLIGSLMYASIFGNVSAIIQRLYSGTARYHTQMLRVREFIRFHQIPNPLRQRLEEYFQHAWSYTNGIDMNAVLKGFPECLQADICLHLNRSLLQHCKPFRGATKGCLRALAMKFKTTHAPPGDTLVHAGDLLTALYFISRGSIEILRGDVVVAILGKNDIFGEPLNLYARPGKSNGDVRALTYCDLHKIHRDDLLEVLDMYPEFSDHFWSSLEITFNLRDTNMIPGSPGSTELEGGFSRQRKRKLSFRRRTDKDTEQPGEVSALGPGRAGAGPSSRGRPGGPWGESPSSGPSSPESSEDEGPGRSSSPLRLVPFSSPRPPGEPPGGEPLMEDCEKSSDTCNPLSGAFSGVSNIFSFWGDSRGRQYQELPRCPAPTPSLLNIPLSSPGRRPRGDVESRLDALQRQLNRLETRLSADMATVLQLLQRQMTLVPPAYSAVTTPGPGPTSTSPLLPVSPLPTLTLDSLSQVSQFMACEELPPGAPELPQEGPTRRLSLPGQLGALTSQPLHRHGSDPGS

Row | SMILES | hERG current change (%, negative = inhibition) at 10uM
1 | COc1cccc(NS(=O)(=O)c2cc3c4c(c2)CCC(=O)N4CCC3)c1 | -17.1%
2 | CCOC(=O)Nc1ccc(OC)c([N+](=O)[O-])c1 | 23.9%
3 | Cc1nc2sc3c(c2c(=O)n1N)CCC3 | 20.4%
4 | FC(F)c1nc2ccccc2[nH]1 | 12.8%
5 | CCOc1cc(/C=C2/C(=O)NC(=O)N(c3ccc(CC)cc3)C2=O)ccc1OC(=O)c1cccs1 | 7.48%
6 | CC(C)(C)OC(=O)N1CCC(Cc2cc(-c3cccnc3)no2)(C(=O)O)CC1 | -1.97%
7 | O=C(c1ccc(Cl)cc1)N1CCN=C1c1ccccc1 | -10.7%
8 | CCCNC(=O)Cn1cnc2sc(C(=O)NCCCN3CCOCC3)c(C)c2c1=O | 4.36%
9 | Cc1ccc(CN2C(=O)N/C(=C/c3ccc(-c4ccc(C(=O)O)cc4)o3)C2=O)cc1 | 0.0417%
10 | O=C(C1=C[C@@H](C2CCCCC2)C[C@@H](OCCCCO)O1)N1CCN(Cc2ccccc2)CC1 | -50.1%
11 | Cc1ccc(C(C)C)c(OCCNCCc2ccccc2)c1.O=C(O)C(=O)O | -17.3%
12 | CCCCCC(=O)N=Nc1c(O)[nH]c2ccc([N+](=O)[O-])cc12 | -6.74%
13 | COc1cc(C(=O)NC2CCN(Cc3nnnn3Cc3cccs3)CC2)cc(OC)c1OC | -5.59%
14 | Cc1oc2c(C)c3oc(=O)c(CCC(=O)NCCCN4CCOCC4)c(C)c3cc2c1C | -6.99%
15 | Cn1c(=O)c(C(=O)COC(=O)c2cc(-c3ccco3)nc3ccccc23)c(N)n(Cc2ccccc2)c1=O | -12.2%
16 | Cn1c(N)c(S(=O)(=O)N2CCN(c3ccccc3Cl)CC2)c(=O)n(C)c1=O | -7.2%
17 | CC(C)(OC1OC(CO)C(O)C(O)C1O)[C@H]1Oc2ccc3ccc(=O)oc3c2[C@H]1O (stereo partly shown) | 14.6%
18 | COc1cc(/C=C/C(=O)N2CCN(c3ccccn3)CC2)cc(OC)c1OC | -5.21%
19 | CCCS(=O)(=O)N1CCC(C(=O)N2CCOCC2)CC1 | -3.88%
20 | CCOC(=O)C(C)(C)Oc1cccc2c1S(=O)(=O)c1ccccc1-2 | 0.739%
21 | O=C(Nc1ccc(S(=O)(=O)NCc2ccco2)cc1)c1ccc(F)cc1 | -4.23%
22 | Cc1ccc(C(=O)c2c3ccc([N+](=O)[O-])cc3[n+]([O-])n2CCCC(N)=O)cc1 | -36.6%

Row | SMILES | hERG current change (%, negative = inhibition) at 10uM
23 | Cc1cc(=O)[nH]c(SCC2(O)C3CC4CC(C3)CC2C4)n1 (stereo not shown) | 23%
24 | CCOc1ccc(-n2c(=O)c3sccc3n(CC(=O)NCC3CCCO3)c2=O)cc1 (stereo not shown) | 16.5%
25 | COc1cc(C#Cc2c(-c3cncn3C)n(C)c3ccc(-c4ccc5[nH]ccc5c4)cc23)cc(OC)c1 | 12.4%
26 | Cc1ccc(-c2c(C#N)c(N)nc3c2CCCC3)s1 | 7.08%
27 | CC(C)c1onc(C(=O)N2CCC(C(N)=O)CC2)c1[N+](=O)[O-] | 11.7%
28 | Cc1cnc(C(=O)Nc2nccs2)cn1 | -5.08%
29 | CCCCn1c(N)c(N(CC(C)C)C(=O)c2cccc(S(=O)(=O)N3CCN(C)CC3)c2)c(=O)[nH]c1=O | 6.33%
30 | CCOc1ccc(-c2cc(CCCC(=O)NCCc3ccccc3)no2)cc1 | 0.847%
31 | NC(=O)[C@H]1CC2(CC(c3cccc(NC(=O)[C@H]4CCC(=O)N4)c3)=NO2)CN1C(=O)CC(c1ccccc1)c1ccccc1 (stereo partly shown) | -10.2%
32 | O=C(O)CC12CSc3[nH]c(=O)sc3C1c1ccccc1OC2=O (stereo not shown) | 12.7%
33 | Cc1ccc(C)c(N(CC(=O)N(C)C)S(C)(=O)=O)c1 | 9.38%
34 | COc1cccc(NC(=O)c2ccccc2C(F)(F)F)c1 | 18.7%
35 | COc1ccc(OCC(=O)N2CCN(CC3CC4C=CC3C4)CC2)cc1 (stereo not shown) | -26.6%
36 | O=C(CCNS(=O)(=O)c1ccc(Br)cc1)NCc1cccs1 | -21.3%
37 | NC(=S)Nc1cccc(-c2n[nH]c(=S)o2)c1 | 17.2%
38 | CC(C)CN(CC(C)C)S(=O)(=O)N1CCC(C(=O)NCCc2ccc(Cl)cc2)CC1 | 11.3%
39 | CN1CCN(C(=S)NC(=O)/C=C/c2cccc3ccccc23)CC1 | -1.99%
40 | COc1ccc(-c2noc(CCCC(=O)NCCc3ccccc3)n2)cc1OC | -1.81%
41 | Cn1c(CC(=O)NNC(=O)c2cccnc2)nc2ccccc21 | 4.23%
42 | CN(C)Cc1c(O)ccc2[nH]cnc12.Cl | -0.964%
43 | CC(C)N1CCc2c(sc(NC(=O)CCS(=O)(=O)c3ccccc3)c2C(N)=O)C1.Cl | -26%
44 | CC1CCN(CC(O)COc2cccc(F)c2)CC1 (stereo not shown) | -24.8%

Row | SMILES | hERG current change (%, negative = inhibition) at 10uM
45 | COCC1CCN(C(=O)c2ccc3oc(CCCc4ccccc4)nc3c2)C1 (stereo not shown) | -42.7%
46 | O=C(c1ccccc1)c1sc(N2CCOCC2)nc1-c1ccccc1 | -19.5%
47 | COC(=O)Cn1cnc2c(cnn2-c2ccccc2)c1=O | 1.49%
48 | COc1ccc(NC(=S)NCCc2c[nH]c3ccc(OC)cc23)c(OC)c1 | -16.3%
49 | COc1ccc(Cl)cc1N(CC(=O)Nc1ccccc1C(=O)N1CCCC1)S(C)(=O)=O | -13.6%
50 | COc1ccccc1NC(=O)Nc1cccnc1 | 6.32%
51 | CC1(C)NC(=O)N(CC(O)COc2cccc(F)c2)C1=O (stereo not shown) | 2.89%
52 | COc1ccc(OC)c(C2=NOC(C(=O)N3CCC4(CC3)OCCO4)C2)c1 (stereo not shown) | 5.15%
53 | CCOC(=O)c1ccc(NC(=O)Cn2cccc2)cc1 | -8.88%
54 | Cc1cnc(CNC(=O)c2ccc3oc(C(C)C)nc3c2)[nH]1 | 0.439%
55 | Cc1ccc(S(=O)(=O)N2CCCCC2C(=O)NCc2ccco2)cc1 (stereo not shown) | -21.2%
56 | Cc1[nH]nc2c1C(c1cccs1)C1=C(CC(C)(C)CC1=O)N2 (stereo not shown) | 25%
57 | COc1ccc(/C=C(/NC(=O)c2ccccc2)C(=O)NCc2ccncc2)cc1 | -44.5%
58 | CCNC(=S)/N=C(\N)Nc1nc(C)c2cc(C)ccc2n1 | 12.5%
59 | COc1cc(CN2CCNC(=O)C2CC(=O)N(C)Cc2ncc[nH]2)cc(OC)c1 (stereo not shown) | 28.6%
60 | O=C(c1ccccn1)N1CCN(S(=O)(=O)c2ccc(F)cc2)CC1 | 3.65%
61 | Cc1nc(NC(=O)c2ccc(-c3cc4ccccc4oc3=O)cc2)ccc1Br | -2.99%
62 | CNCC(=O)O | -3.15%
63 | COc1ccccc1C(=O)Nc1onc(C)c1C#N | 22.5%
64 | Cc1ccc(C)c(C(=O)COC(=O)Cn2[nH]c(=O)c3ccccc3c2=O)c1 | 5.51%
65 | C/C=C/Cn1c(N(C)Cc2ccccc2)nc2c1c(=O)[nH]c(=O)n2C | -24.3%
66 | CN1CCN(C(=O)c2ccc3c(c2)N(Cc2ccc(F)cc2)C(=O)c2ccccc2S3=O)CC1 (stereo not shown) | 11.8%

Row | SMILES | hERG current change (%, negative = inhibition) at 10uM
67 | O=C(O)CN(c1ccccn1)S(=O)(=O)c1ccc(Cl)cc1 | 8.28%
68 | CCOc1ccc(CCNC(=O)COC(=O)c2cccc(OC)c2O)cc1OCC | 8.17%
69 | COc1ccc(NC(=O)c2sc(Cl)nc2-c2ccccc2)cc1 | 9.44%
70 | Cc1ccc(NC(=O)/C(=C/c2ccc([N+](=O)[O-])cc2)NC(=O)c2ccccc2)cc1 | -12%
71 | CCCc1cc(=O)n2[nH]c(-c3cc(OC)c(OC)c(OC)c3)nc2n1 | 5.93%
72 | O=C1CCN(C(=S)NCc2ccccc2)CC1 | 13.7%
73 | O=S(=O)(NNc1ccc(F)cc1F)c1cccc(Cl)c1 | 9.49%
74 | N#Cc1ccc(NC(=O)COC(=O)CCc2ccc(S(=O)(=O)N3CCCCC3)cc2)cc1 | -23.8%
75 | O=C(NCCc1ccccc1F)/C(=C/c1cccnc1)NC(=O)c1ccccc1 | -52.2%
76 | CCCCCOC(=O)C1=C(C)Nc2nnnn2C1c1ccccc1Cl (stereo not shown) | 15.5%
77 | N#CC(c1ccc(Cl)nn1)c1ccc(Cl)cc1Cl (stereo not shown) | -5.74%
78 | CCCC(=O)Nc1nc2c(OC)ccc(OC)c2s1 | -6.42%
79 | Cc1ccc(NC(=O)N(CCC(=O)O)Cc2ccccc2)cc1 | 12.2%
80 | O=C(CCCn1c(=S)[nH]c2ccc(Br)cc2c1=O)NCC1CCCO1 (stereo not shown) | 15.8%
81 | CCc1nc(SCC(=O)Nc2cc(C)on2)c2c(=O)n(C)c(=O)n(C)c2n1 | 20.6%
82 | COc1ccc(CCC(=O)OCC(=O)N(CC(C)C)c2c(N)n(Cc3ccccc3)c(=O)[nH]c2=O)cc1 | 0.813%
83 | Fc1ccc(CSc2ccc3nnc(-c4cccnc4)n3n2)cc1 | -71.5%
84 | COc1cc2c(cc1OC)C(C)N(C(=O)c1cc3ccccc3o1)CC2 (stereo not shown) | -36.3%
85 | N#Cc1c2n(c(=S)n(-c3ccc(F)cc3)c1=O)CCCCC2 | 4.03%
86 | CCOC(=O)c1ccc(Oc2coc3cc(O)ccc3c2=O)cc1 | 17.6%
87 | COc1ccc(-c2nnc(N(C)C(=O)c3cccnc3)s2)cc1 | -0.307%
88 | Cc1ccc(C)c(S(=O)(=O)N2CCN(C(=O)[C@@H]3CCCN3C(=O)c3cccs3)CC2)c1 | -17%

Source: paper PMC4336329 (PLoS ONE, 2015)
